{
  "source": "PubChem BioAssay AID1347073",
  "about": "(National Center for Advancing Translational Sciences (NCATS), 2019)",
  "note": "Screen size: about 45,000 compounds; about 200 (0.44%) were called active. Another 7% or so got no clear call; they are omitted. Calls follow the shape of the dose curve; as a rule, active = well fitted activation curve with a large enough effect; inconclusive = small, poorly fitted or top-dose-only effect; inactive = no such curve, though single readings can be large or run the other way. This is one part of the list.",
  "data": [
    {"test": "qHTS of TDP-43 Inhibitors: NCGC Sytravon Library Screen; also: 0% is about no effect; nearly all actives have a fitted effect of over 55% in size", "conditions": "yeast TDP-43 toxicity rescue, BacTiter-Glo growth, 24 h; series mostly up to 46.1 µM; growth rescue (activation): at the top concentration", "from_the_text": "The goal of this project is to identify new chemical probes capable of reversing the toxicity associated with TDP-43 which is associated with frontotemporal lobar degeneration and amyotrophic lateral sclerosis. These compounds will provide a complementary approach to deciphering the tangled mechanisms of toxicity and protection that we have uncovered through genome-wide genetic screens and are beginning to uncover in a large-scale proteomics analysis with mass spectroscopy. To this end, a miniaturized assay was developed to be screened against the Molecular Libraries Small Molecule Repository (MLSMR) to discover TDP-43 inhibitors. Please note that in the set-up this yeast-based assay compounds that inhibit as TDP-43, have a read-out as activators. NIH Chemical Genomics Center [NCGC] NIH Molecular Libraries Probe Centers Network [MLPCN] Assay Submitter (PI): Susan Lindquist, Whitehead Institute/MIT MLPCN Grant: R21 NS060957\nDispense 2.5 microL yeast galactose medium per 1536-well plate, pin compound, dispense 2.5 microL TDP-43 expressing yeast in galactose medium at OD600=0.02 (pregrown in raffinose medium to mid-log phase) per well, incubate for 24 hr at 30 deg C, and cell growth will be measured using 5 microL of Bactiter/Glo reagent to entire plate and read using Luminescence Protocol in ViewLux.", "values": [
      {"smiles": "CC(C)Oc1ccc(Br)cc1C(=O)N/N=C/c1c[nH]c2ccccc12", "growth rescue (activation)": "inactive: 0.373%"},
      {"smiles": "CC(=C/c1ccccc1)/C=C1/SC(N2CCOCC2)=NC1=O", "growth rescue (activation)": "inactive: 13.5%"},
      {"smiles": "CCCC(=O)Nc1ccc(-c2ccc(NC(=O)CCC)cc2)cc1", "growth rescue (activation)": "inactive: 4.37%"},
      {"smiles": "O=C(COc1ccc2ccc(=O)oc2c1)N1CCc2ccccc21", "growth rescue (activation)": "inactive: 5.44%"},
      {"smiles": "O=C(Cn1ccc([N+](=O)[O-])n1)NCCc1c[nH]c2ccccc12", "growth rescue (activation)": "inactive: 8.64%"},
      {"smiles": "COc1ccc(CNS(=O)(=O)c2ccc(S(=O)(=O)NC3CC3)cc2)cc1", "growth rescue (activation)": "inactive: -27.5%"},
      {"smiles": "COc1ccc(-c2coc3cc(OC)cc(O)c3c2=O)cc1", "growth rescue (activation)": "inactive: 34%"},
      {"smiles": "Cc1ccc2c(COC(=O)c3ccccc3Cl)cc(=O)oc2c1", "growth rescue (activation)": "inactive: -17.4%"},
      {"smiles": "COc1ccc(C)cc1N(CC(=O)NC1CCCC1)C(=O)Cn1nnc(-c2ccc(C)o2)n1", "growth rescue (activation)": "inactive: -9.08%"},
      {"smiles": "CC(NC(=O)c1ccco1)C(=O)N1CCN(C(c2ccccc2)c2ccccc2)CC1", "note": "(stereo unspecified)", "growth rescue (activation)": "inactive: 12.5%"},
      {"smiles": "CC(C)C(NC(=O)c1ccc([N+](=O)[O-])cc1Cl)C(=O)N1CCCC1", "note": "(stereo unspecified)", "growth rescue (activation)": "inactive: 5.04%"},
      {"smiles": "O=C(c1cc(-c2ccc(O)cc2)on1)N1CCOCC1", "growth rescue (activation)": "inactive: 17.5%"},
      {"smiles": "COc1ccc(C2=CC(c3ccco3)n3ncnc3N2)cc1", "note": "(stereo unspecified)", "growth rescue (activation)": "inactive: 27.8%"},
      {"smiles": "O=C(Nc1nccs1)c1cc(Cl)ccc1[N+](=O)[O-]", "growth rescue (activation)": "inactive: 11.7%"},
      {"smiles": "CCOc1ccc(C(=O)NC(C)(C)CC)cc1", "growth rescue (activation)": "inactive: 10.5%"},
      {"smiles": "COc1ccc(CNC(=O)CC23CC4CC(CC(C4)C2)C3)cc1", "growth rescue (activation)": "inactive: 14.4%"},
      {"smiles": "O=C(N/N=C/c1ccccc1OC(F)F)c1cc(-c2ccncc2)nc2ccccc12", "growth rescue (activation)": "inactive: 12.2%"},
      {"smiles": "O=C(CCNS(=O)(=O)/C=C/c1ccccc1)NCCc1c[nH]c2ccccc12", "growth rescue (activation)": "inactive: 2.38%"},
      {"smiles": "O=C(c1ccc(Br)cc1)c1cn[nH]c1-c1ccccc1O", "growth rescue (activation)": "inactive: 2.22%"},
      {"smiles": "COc1ccc2[nH]c(N=Nc3ccccc3C)c(O)c2c1", "growth rescue (activation)": "inactive: 3.68%"},
      {"smiles": "Cc1cccc(/C=N/NC(=O)c2ccc(NC(=O)c3cccc(Cl)c3)cc2)n1", "growth rescue (activation)": "inactive: 8.76%"},
      {"smiles": "COc1cc(NC(=S)N2CCN(Cc3ccccc3)CC2)cc(OC)c1", "growth rescue (activation)": "inactive: 3.94%"},
      {"smiles": "COc1cc(/C=N/NC(=O)c2ccc3nc[nH]c3c2)ccc1O", "growth rescue (activation)": "inactive: 18.6%"},
      {"smiles": "Cc1ccc(NC(=S)N2CCC(NC(=O)c3cccc(F)c3)CC2)cc1", "growth rescue (activation)": "inactive: 9.98%"},
      {"smiles": "NC(c1ccc(F)c(F)c1)c1nc(-c2cc(F)cc(F)c2)cs1", "note": "(stereo unspecified)", "growth rescue (activation)": "inactive: 7.55%"},
      {"smiles": "Cc1occc1-c1nnc(SCC(=O)NC2CCCC2)n1C", "growth rescue (activation)": "inactive: -5.79%"},
      {"smiles": "CCOC(=O)c1c(C)[nH]c(C)c1C(=O)CSc1nc2ccccc2n1CC", "growth rescue (activation)": "inactive: 24%"},
      {"smiles": "CCOc1ccc(S(=O)(=O)N(CC)CC)cc1N", "growth rescue (activation)": "inactive: -15.8%"},
      {"smiles": "CC(NC(=O)c1ccc(=O)oc1)c1ccccc1", "note": "(stereo unspecified)", "growth rescue (activation)": "inactive: 11.7%"},
      {"smiles": "Cc1ccc2nc(-c3ccc(C)c(NC(=O)Cc4ccccc4)c3)oc2c1", "growth rescue (activation)": "inactive: -8.65%"},
      {"smiles": "CCC[N+](C)(C)C(C)C(OC(C)=O)c1ccccc1", "note": "(stereo unspecified)", "growth rescue (activation)": "inactive: -5.34%"}
    ]}
  ]
}
